Measurements as given in PubChem BioAssay AID624417 (National Center for Advancing Translational Sciences (NCATS), 2012).
Where “and” joins values, the source holds several entries; their conditions need not be identical. Equal entries are not always repeated. The campaign covered roughly 410,000 compounds. About 6,400 (1.6%) were called active. Inconclusive results, whose numbers are uncertain, are shown with a selection of clear calls. Calls come from the whole dose curve; as a rule, active = well fitted inhibition curve with a large enough effect; inconclusive = small, poorly fitted or top-dose-only effect; inactive = no such curve, though single readings can be large or run the other way. Where the call is inconclusive, the potency comes from a doubtful curve fit.

The molecules below were run against Glucagon-like peptide 1 receptor (Homo sapiens) (UniProt P43220) (assay: qHTS of GLP-1 Receptor Inverse Agonists (Inhibition Mode)). Settings: HEK293 GLP-1R CRE-luciferase, luminescence, 24 h, GLP-1R form is constitutively active; activity change, negative = inhibition: at 38.3 µM (top of the series) unless noted.
Chain of UniProt P43220 (P43220 whole entry, looked up): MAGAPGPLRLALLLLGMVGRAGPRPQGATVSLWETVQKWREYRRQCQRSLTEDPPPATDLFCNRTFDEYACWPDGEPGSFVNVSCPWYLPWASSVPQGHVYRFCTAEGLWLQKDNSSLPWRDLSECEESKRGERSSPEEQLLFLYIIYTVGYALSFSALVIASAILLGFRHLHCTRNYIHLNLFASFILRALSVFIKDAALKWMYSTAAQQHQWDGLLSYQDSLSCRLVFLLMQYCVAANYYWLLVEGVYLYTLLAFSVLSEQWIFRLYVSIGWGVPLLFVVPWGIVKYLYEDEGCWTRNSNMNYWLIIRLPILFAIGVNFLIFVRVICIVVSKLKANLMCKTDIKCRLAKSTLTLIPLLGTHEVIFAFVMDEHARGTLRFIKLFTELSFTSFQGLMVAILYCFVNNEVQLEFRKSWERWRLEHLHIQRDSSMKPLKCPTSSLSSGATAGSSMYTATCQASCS
Procedure, shortened: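 Inverse agonists were sought by their lowering of basal cAMP reporter luciferase output in HEK293 cells stably carrying constitutively active human GLP-1R, after 24 h compound treatment.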
% is set by controls: 0 for no effect and ±100 for the full control effect; potency is the fitted concentration of half-maximal effect; tags give direction and shape of the fitted curve.
Note: nearly all actives have a fitted effect of over 55% in size.

Potency, inactive:
NS(=O)(=O)c1ccc(NC(=O)CSC2CCCCC2)cc1
Cc1ccc(NC(=O)Cn2c(=O)oc3cc(S(=O)(=O)N4CCCCCC4)ccc32)cc1Cl
N#CCCN/N=C(\Cc1nc2ccccc2[nH]1)c1ccccc1
CCCS(=O)(=O)c1nc(S(=O)(=O)c2ccc(C)cc2)c(NCc2ccccc2)s1
N#CC(C#N)=C1NC2(CCCCC2)Cc2ccccc21

Potency, active:
CCc1ccc(/C=C2\SC(=S)N(CCCC(=O)N3CCN(C)CC3)C2=O)cc1 10 µM
Oc1c(CN2CCN(c3ccccn3)CC2)cc(Cl)c2cccnc12 0.501 µM

Potency, inconclusive:
O=C(CC1SC(=Nc2ccccc2)N(Cc2ccccn2)C1=O)Nc1cccc(Cl)c1 (stereo not given) 11.2 µM [inhibitor, partial curve, poor fit]
COc1ccc(C)cc1S(=O)(=O)NC1CCCCC1C (stereo not given) 17.8 µM [inhibitor, single point]
Cc1ccc(NC(=O)c2c(C)oc3ccc(O)c(CN4CCCCC4)c23)c(C)c1 10 µM [inhibitor, partial curve, poor fit]
COc1ccc(OC)c(-c2cc(C(=O)Nc3ccccc3C(N)=O)c3ccccc3n2)c1 11.2 µM [inhibitor, single point]
CCC(C)[C@H](N)C(=O)N[C@H]1CCC2C3CC=C4C[C@@H](O)CC[C@]4(C)C3CC[C@@]21C (stereo not given in full) 28.2 µM [inhibitor, single point]
Cc1ccc(NC(=O)c2nc(S(C)(=O)=O)ncc2N(Cc2ccco2)Cc2ccco2)cc1C 7.08 µM [inhibitor, partial curve, poor fit]
Nc1cc(S(=O)(=O)N2CCCCC2)ccc1Oc1ccccc1 12.6 µM [inhibitor, single point]
CCOc1ccc(Nc2c(S(=O)(=O)c3ccccc3)cnc3ccccc23)cc1 28.2 µM [inhibitor, single point]
Cc1noc(C)c1S(=O)(=O)N(C)CC(=O)Nc1ccc(F)cc1 12.6 µM [inhibitor, single point]
COc1cc(C(=O)N/N=C/C2CC=CCC2)cc(OC)c1OC (stereo not given) 0.794 µM [inhibitor, full curve, poor fit]
CCCNC(=S)Nc1ccc(Oc2ccccc2)cc1 28.2 µM [inhibitor, single point]
COc1cc(CN2CCCC(CO)(Cc3cccc(Cl)c3)C2)cc(OC)c1O (stereo not given) 15.8 µM [inhibitor, single point]
O=C(N1CCCCC1)N1CCN(c2ccc(Cl)cc2)CC1 20 µM [inhibitor, single point]
C=CC(=O)Nc1ccc(Nc2nc(NC3CCC(N(C)C)CC3)nc3c2ncn3C(C)C)cc1 (stereo not given) 0.316 µM [inhibitor, full curve, poor fit]
COc1ccc(Br)cc1CNc1ccc(N2CCOCC2)cc1 22.4 µM [inhibitor, single point]
Cc1c(C(=O)NN)[nH]c2ccc([N+](=O)[O-])cc12 31.6 µM [inhibitor, partial curve, poor fit]
C/C(=N\NC(=O)c1ccccc1-n1cccc1)c1ccccn1 2.82 µM [inhibitor, full curve, poor fit]
CN(CC(=O)Nc1ccccc1-c1ccccc1)Cc1ccccc1Cl 7.08 µM [inhibitor, partial curve, poor fit]
CCN(CC(=O)Nc1ccc(OC)cc1)C(=O)c1cc(-c2cccs2)nn1-c1ccccc1 12.6 µM [inhibitor, partial curve, poor fit]
COc1cccc(C2(c3cccc(OC)c3)CC2C(=O)Nc2ccccc2Cl)c1 (stereo not given) 10 µM [inhibitor, partial curve, poor fit]
COc1cc(OC)c2nc(C)c3c(c2c1)N(c1ccc(O)cc1)CC3 3.98 µM [inhibitor, full curve, poor fit]
Cc1ccc(CCNC(=O)CCSCc2ccccc2Cl)cc1 12.6 µM [inhibitor, single point]
CC(C)CCN(Cc1ccco1)S(=O)(=O)c1csc(C(N)=O)c1 5.62 µM [inhibitor, partial curve]
CSc1ncnc2c1ncn2CCCN1CCN(Cc2c(C)cc(C)cc2C)CC1 11.2 µM [inhibitor, partial curve, poor fit]
O=C1CSC(c2cn(-c3ccccc3)nc2-c2cc3ccccc3oc2=O)N1Cc1ccco1 (stereo not given) 11.2 µM [inhibitor, single point]
O=C(COc1ccc(C(=S)N2CCC(Cc3ccccc3)CC2)cc1)N1CCOCC1 28.2 µM [inhibitor, single point]
Cc1noc(C)c1COc1ccccc1C(=O)NCCc1ccc(Cl)cc1 12.6 µM [inhibitor, single point]
CC(=O)N1CCCc2cc(S(=O)(=O)N3CCCC(C(=O)N4CCN(c5cc(C)ccc5C)CC4)C3)ccc21 (stereo not given) 11.2 µM [inhibitor, partial curve, poor fit] and 7.94 µM [inhibitor, partial curve, poor fit]
COc1ccc(CC(N)c2csc(Nc3ncccn3)n2)cc1 (stereo not given) 28.2 µM [inhibitor, single point]
Cc1cc2ccccc2nc1SCC(=O)NC1CCCC1 10 µM [inhibitor, single point]
Cc1cc(Br)cc(Br)c1OCC(=O)NNC(=O)c1ccoc1C 7.94 µM [inhibitor, partial curve, poor fit]
C/C=C/c1ccc(OCCCNC(C)CC)c(OC)c1 (stereo not given) 0.355 µM [inhibitor, full curve, poor fit]
CC1CC(C)CN(CCCNC(=O)C2CCN(c3nnc(-n4cccc4)s3)CC2)C1 (stereo not given) 7.94 µM [inhibitor, partial curve, poor fit]
Cc1ccc(C(=O)COC(=O)CCC(=O)Nc2ccc(Oc3cc(C)ccc3C(C)C)cc2)cc1 28.2 µM [inhibitor, single point]
CCOC(=O)C1CCN(C(=O)C23CC4CC(CC(C4)C2)C3)CC1 3.55 µM [inhibitor, partial curve, poor fit]
Cc1cccc(CCNC(=O)C2CCC(CNS(=O)(=O)c3cccs3)CC2)c1 (stereo not given) 10 µM [inhibitor, partial curve, poor fit]
N=C(N)Cc1ccccc1Sc1ccccc1 10 µM [inhibitor, single point]
CCOC(=O)c1cnc2ccc(OCC)cc2c1N(C)Cc1ccccc1 28.2 µM [inhibitor, single point]
COc1ccc(-c2cc(NC=O)c3ncc(-c4cccc(C(F)(F)F)c4)n3c2)c(OC)c1 11.2 µM [inhibitor, partial curve, poor fit]
CCOc1ccccc1-n1ccn(CC(=O)Nc2ccc(Br)cc2F)c(=O)c1=O 7.94 µM [inhibitor, partial curve, poor fit]
CCOC(=O)Cn1nnnc1C(C(C)C)N(Cc1cc2c(C)cc(C)cc2[nH]c1=O)C1CCCC1 (stereo not given) 28.2 µM [inhibitor, single point]
Oc1ccccc1-n1c(-c2ccccc2)ccc1-c1ccccc1 7.08 µM [inhibitor, partial curve, poor fit]
CC(=O)Nc1ccc(C(=O)OCC(=O)N(c2ccccc2)C2CCCCC2)cc1 5.62 µM [inhibitor, full curve, poor fit]
Cc1ccc(/C=C/c2onc(C)c2S(=O)(=O)N2CCC(C(=O)N3CCCCC3)CC2)cc1 28.2 µM [inhibitor, single point]
COc1ccc(Cl)cc1N(CC(=O)NC1CC2CCC1C2)S(=O)(=O)c1ccccc1 (stereo not given) 28.2 µM [inhibitor, single point]
Cc1ccc(NC(=O)CCCc2c[nH]c3ccccc23)nc1 7.08 µM [inhibitor, partial curve, poor fit]
O=C(Nc1cccc(S(=O)(=O)Nc2ccc(Cl)cc2)c1)c1ccc(Cl)nc1 2.24 µM [inhibitor, partial curve, poor fit]
Cc1nc(CS(=O)(=O)c2ccccc2)cc(Sc2ccc(Cl)cc2)n1 12.6 µM [inhibitor, single point]
CNc1nc(-c2ccc3c(c2)CCN3C(=O)c2cccc(F)c2)cs1 11.2 µM [inhibitor, single point]
COc1ccc(NC(=O)CCN2CCN(S(=O)(=O)c3cc(Cl)ccc3Cl)CC2)cc1 8.91 µM [inhibitor, partial curve, poor fit]
O=C(CSc1cn(CC(=O)N2CCCC2)c2ccccc12)Nc1cc(C(F)(F)F)ccc1Cl 10 µM [inhibitor, single point]
CN1CCN(S(=O)(=O)c2ccc(Nc3cccc(Cl)c3)c([N+](=O)[O-])c2)CC1 11.2 µM [inhibitor, partial curve, poor fit]

Activity change, negative = inhibition, inactive:
Cc1ccsc1C(=O)OCC(=O)NCc1ccco1 14.7% [at 7.66 µM]
